The values below come from publication PMC12136788.

B1: chr7:17501706:17501707:-_ENSMUSG00000019370_ENSMUST00000019514|mus_mus|FALSE|FALSE (ssRNA)
RNA: GGGAGUUCUACAGUCCGACGAUCCUCCAGUAGCGAAAGCAUGUUAGCUUCCAAGGCCUUCCUGCCUCUUCCCACCCUUCCACACACACAACCCCCCCCCCCGCCCCCCGUCCUGGGUCACAUCCUCAACUCCCUCGGUCCUGGCAACAGAGGAUUGAGCAUCA
B2: chr8:95952310:95952311:-_ENSG00000164938_ENST00000448464|hu_mus|FALSE|FALSE (ssRNA)
RNA: GGGAGUUCUACAGUCCGACGAUCUGGGGGAGGAGUGAUGAACCAGCUCUCCUCCAUUGGACAGGACUCAAACUGAAGGAAGCAGGAAUCACUGGUGUCAGUCAAGCAUUCCAAAGAUGCAGGUAAACAGGAGAAGACAGAAGUCAACAGAGGAUUGAGCAUCA
B3: chr6:38652254:38652255:-_ENSG00000124767_ENST00000373365|hu_hu|hu_hu_hu_mus_False|18_78 (ssRNA)
RNA: GGGAGUUCUACAGUCCGACGAUCCGAGAACUUCAUAGCAGGGAAGUCAAGCUUCUGGAUUAGCGUCAGUCCAAGAACCCUCGUAUAAAAAUCCAGGGACUUCUUAGGAUCCUUAAUUCGUAGCAUGGUUUGCUGCAGUAGAAACAACAGAGGAUUGAGCAUCA
B4: chr4:17845017:17845018:+_ENSG00000109805_ENST00000514176|hu_mus|hu_hu_hu_mus_False|1_68 (ssRNA)
RNA: GGGAGUUCUACAGUCCGACGAUCGCUCUCUUAACUUGUAUCUUCAUUAAGGAACUCUGCAAGGUUAGUUUACUUUUUCUGUAGCGCAGCUGUUUUGGCUCGUCUGGGUAAUCUCAUCUUCAUUUCUGAUGGUGGUUUGGAACUCAACAGAGGAUUGAGCAUCA
B5: 94800096_94803529_1555_3pUTR_ENSG00000164953_ENST00000453321|human|control|control (ssRNA)
RNA: GGGAGUUCUACAGUCCGACGAUCUUCUCCAUGAUCCAUUUCAUAUGUGACUGAGAAAGAAACCUUCACAGACUGGCUGUUGGCAUCUUUGAUAUCAAUGUCACUGUAGGCAAUGGUGAUUAAGGGAGGGUAGAUGUUUCCAUUCAACAGAGGAUUGAGCAUCA
B6: chr8:104447970:104447971:+_ENSG00000164934_ENST00000297579|hu_hu|hu_hu_hu_mus_False|1_68 (ssRNA)
RNA: GGGAGUUCUACAGUCCGACGAUCAUACACUUCCCUGCUUCGGCUCUUGUCCACAGGAAAGAUUCUAAUAGAUUUAUCAAAGCUGGCAGACACAAAUUCCUUCCCAGUGGGAGAGUAGUCCACAUCAAGUACUGCAGAUACAUGCAACAGAGGAUUGAGCAUCA

The other results are listed elsewhere or left out.

The target in this experiment is T1, UNK ZnF1-3 (human, UniProt Q9C0B0 31-174).
T1 sequence: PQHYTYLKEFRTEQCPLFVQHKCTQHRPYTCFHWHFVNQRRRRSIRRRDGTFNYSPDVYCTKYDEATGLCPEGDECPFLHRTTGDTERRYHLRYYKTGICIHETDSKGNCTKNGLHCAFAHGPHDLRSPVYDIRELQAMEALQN
Nature of the experiment: nsRBNS (natural sequence RNA bind-n-seq); RBNS binding buffer (assumed for nsRBNS): 25 mM Tris pH 7.5, 150 mM KCl, 3 mM MgCl2, 0.01% Triton X-100, 500 ug/ml BSA, 20 U/ml SUPERase-In, 4 C; UNK is unkempt and MSI1 is Musashi-1; names of the RNAs are library labels; protein concentration not given here; high values mean tight binding.
As for B1, the binding signal was found to be 1.16 enrichment R.
B2: the binding signal turned out to be 1.15 enrichment R.
In the case of B3 it was 0.978 enrichment R; in that of B4, 0.407 enrichment R; in that of B5, 1.02 enrichment R.
The value for B6 was 1.12 enrichment R.
